Data taken from PubChem BioAssay AID2147 (National Center for Advancing Translational Sciences (NCATS), 2009).
Hit rate of the full screen: of about 230,000 compounds, about 3,600 (1.6%) were called active. This list was built around the results that the source calls inconclusive (neither active nor inactive); the mix of calls is not that of the screen. Calls follow the shape of the dose curve; as a rule, active = well fitted inhibition curve with a large enough effect (not every such curve was filed as active); inconclusive = small, poorly fitted or top-dose-only effect, or another doubt; inactive = no such curve, though single readings can be large or run the other way. A potency beside an inconclusive call is a rough fit, not a confirmed value.
Also: nearly all actives have a fitted effect of over 50% in size.
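For activity change, negative = inhibition in this document: 0% = wells with enzyme and -100% = buffer wells without enzyme.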
Potency is read from the fitted curve at half-maximal effect; tags tell the direction and shape of the fitted curve.

These molecules were tested against Lysine-specific demethylase 4E (Homo sapiens) (UniProt B2RXH2) (assay: qHTS Assay for Inhibitors of Human Jumonji Domain Containing 2E (JMJD2E)). Settings: JMJD2E catalytic domain, FDH-coupled NADH fluorescence (FDH is formaldehyde dehydrogenase); series mostly up to 57.1 µM; activity change, negative = inhibition: at the top concentration.
Chain of UniProt B2RXH2 (B2RXH2 whole entry, looked up, the tested form may be a part): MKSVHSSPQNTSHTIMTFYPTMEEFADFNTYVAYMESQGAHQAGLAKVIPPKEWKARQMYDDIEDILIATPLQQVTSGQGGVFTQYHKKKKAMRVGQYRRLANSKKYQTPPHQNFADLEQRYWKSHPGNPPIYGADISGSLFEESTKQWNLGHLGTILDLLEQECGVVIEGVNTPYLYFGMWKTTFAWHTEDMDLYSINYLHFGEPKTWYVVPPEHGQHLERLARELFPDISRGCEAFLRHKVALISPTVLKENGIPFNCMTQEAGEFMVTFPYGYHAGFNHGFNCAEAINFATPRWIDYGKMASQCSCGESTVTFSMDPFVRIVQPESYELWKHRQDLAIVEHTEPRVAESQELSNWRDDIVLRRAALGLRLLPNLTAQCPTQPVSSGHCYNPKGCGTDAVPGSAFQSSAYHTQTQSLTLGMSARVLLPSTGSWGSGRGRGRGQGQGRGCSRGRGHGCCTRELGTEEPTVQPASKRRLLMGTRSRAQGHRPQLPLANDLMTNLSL
For `COC(=O)CNC(=O)c1cc(OC)cc(OC)c1`, the Potency was inconclusive: 35.5 µM [inhibitor, single point]. For `CCCc1nc2oc3c(NCC(C)O)ncnc3c2c2c1CCCC2` (centres undefined), the Potency was inconclusive: 28.2 µM [inhibitor, partial curve]. For `COc1ccc(CNc2nc(SCc3cc(=O)n4cc(Cl)ccc4n3)nc3ccccc23)cc1`, the Potency was inconclusive: 6.31 µM [inhibitor, single point]. `c1ccc(-c2nnc(CN3CCCc4ccccc43)o2)cc1` was tested, and the Potency was inconclusive: 35.5 µM [inhibitor, single point]. `COc1ccc(-c2nc(CS(=O)CC(=O)NCc3ccccn3)c(C)o2)cc1` (centres undefined) was tested, and the Potency was inconclusive: 35.5 µM [inhibitor, single point]. In the case of `CC(C)CCNc1nc2c(c(=O)n(Cc3cccc(F)c3)c(=O)n2C)n1C`, the “activity change, negative = inhibition” value is reported as inactive: 6.45%. `COc1ccc(N(C)S(=O)(=O)c2cccc(C(=O)Nc3nc4ccccc4[nH]3)c2)cc1` was tested, and the Potency was inconclusive: 39.8 µM [inhibitor, single point]. For `O=C(Nc1ccc(Cl)cn1)c1cc2c(s1)-c1ccccc1OC2`, the Potency was inconclusive: 28.2 µM [inhibitor, partial curve]. In the case of `Cc1cc(C)n2nc(-c3cnn(C)c3C(F)(F)F)cc2n1`, the Potency is reported as inconclusive: 35.5 µM [inhibitor, single point]. For `Cc1ccc(-c2csc3nc4c5ccccc5c(NCCCN(C)C)nn4c(=O)c23)cc1`, the Potency was inconclusive: 31.6 µM [inhibitor, partial curve]. For `O=C(O)c1cc(NN=C2CCN(Cc3ccccc3)CC2)ccc1Cl`, the Potency was inconclusive: 39.8 µM [inhibitor, single point]. In the case of `COc1ccc2c(c1)C(=O)[C@@H](O)[C@H](c1ccc(OC)c(Br)c1)O2`, the Potency is reported as inconclusive: 22.4 µM [inhibitor, partial curve]. With `Cc1coc(C)c1C(=O)CC1(O)C(=O)N(Cc2ccccc2)c2ccccc21` (centres undefined) the “activity change, negative = inhibition” value was inactive: -0.0447%. With `CCOC(=O)[C@H](N)/C=C(\C)CP(=O)(O)O` the “activity change, negative = inhibition” value was inactive: 3.2%. With `CC1(C)CC[C@]2(C(=O)O)CC[C@@]3(C)C(=CCC4[C@@]5(C)CCC(O)[C@@](C)(CO)C5CC[C@@]43C)C2C1` (some centres undefined) the “activity change, negative = inhibition” value was inactive: 0.576%. `Cn1c(=O)c([N+](=O)[O-])c(-n2cnc3ccccc32)c2ccccc21` was tested, and the Potency was inconclusive: 39.8 µM [inhibitor, single point]. `COc1ccc(/C=C/C(=O)NC(=S)Nc2ccc(C(=O)O)cc2)cc1` was tested, and the Potency was inconclusive: 31.6 µM [inhibitor, partial curve]. `Cc1ccccc1NC(=O)Nc1ccccc1C(=O)NCc1ccccc1` was tested, and the Potency was inconclusive: 28.2 µM [inhibitor, single point]. For `COc1ccc(C(=O)NC(=S)NNC(=O)c2ccc(NC(=O)C(C)C)cc2)cc1`, the Potency was inconclusive: 39.8 µM [inhibitor, single point]. With `Clc1ccc(CSc2nnnn2-c2ccc3c(c2)OCO3)c(Cl)c1` the “activity change, negative = inhibition” value was inactive: 3.1%. In the case of `O=C(N/N=C1\CC(c2ccccc2)Oc2ccccc21)c1ccccn1` (centres undefined), the Potency is reported as inconclusive: 6.31 µM [inhibitor, single point]. In the case of `O=c1c2ccccc2sn1-c1cc(S(=O)(=O)N2CCOCC2)ccc1N1CCOCC1`, the Potency is reported as active: 8.91 µM. `COc1ccc(-c2cn3ccc4ccccc4c3n2)cc1` was tested, and the Potency was inconclusive: 31.6 µM [inhibitor, partial curve]. With `CCOC(=O)CCc1c(C)c2ccc(OC(C)C(=O)OCC)c(C)c2oc1=O` (centres undefined) the Potency was inconclusive: 28.2 µM [inhibitor, partial curve]. With `O=C(Cc1ccc(Cl)cc1)Nc1nc2ccccc2[nH]1` the Potency was inconclusive: 39.8 µM [inhibitor, single point]. `COc1ccc(NC(=O)COC(=O)Cn2nnc3ccccc32)cc1` was tested, and the “activity change, negative = inhibition” value was inactive: 10.1%. For `CCn1c2ccccc2c2cc(NC(=O)COc3ccccc3OC)ccc21`, the Potency was inconclusive: 39.8 µM [inhibitor, single point]. In the case of `O=C(NCc1cccnc1)C(=O)NCC(c1ccco1)N1CCN(c2ccc(F)cc2)CC1` (centres undefined), the “activity change, negative = inhibition” value is reported as inactive: -2.16%. For `O=C1S/C(=C\c2ccccc2)C(=O)N1CC(O)Cn1c2ccccc2c2ccccc21` (centres undefined), the Potency was inconclusive: 39.8 µM [inhibitor, single point]. For `COc1ccccc1-c1nc(NCCNC(C)=O)c2ccccc2n1`, the Potency was inconclusive: 25.1 µM [inhibitor, partial curve]. With `CC1(C)Cc2c(c(-c3ccco3)nc3sc4c(NCCO)ncnc4c23)CO1` the Potency was inconclusive: 3.98 µM [inhibitor, full curve]. `Cc1cc2cc(CN(Cc3cccs3)C(=S)NCc3ccco3)c(=O)[nH]c2cc1C` was tested, and the Potency was inconclusive: 35.5 µM [inhibitor, single point]. In the case of `O=C(/C(=C/c1ccc(Cl)cc1)c1nc2ccccc2[nH]1)c1ccccc1`, the “activity change, negative = inhibition” value is reported as inactive: 2.08%. `Cc1cc(C)cc(OCC(=O)Nc2ccc(S(=O)(=O)Nc3ccccn3)cc2)c1` was tested, and the Potency was inconclusive: 25.1 µM [inhibitor, single point]. With `CC(C)c1ccc(C(N)=S)cc1` the “activity change, negative = inhibition” value was inactive: 3.72%. `Cn1c(=O)cc(SCC(=O)N2CCCC2)c2ccccc21` was tested, and the “activity change, negative = inhibition” value was inactive: -9.59%. With `C=CCn1c(C)cc(C(=O)Cn2ncc(Cl)c(Cl)c2=O)c1C` the “activity change, negative = inhibition” value was inactive: -2.06%. `O=C(COc1ccc(/C=N/NS(=O)(=O)c2ccccc2)cc1)NCc1ccccc1` was tested, and the “activity change, negative = inhibition” value was inactive: -3.62%. For `COc1ccc(N2CCN(C(=O)c3ccc(CSc4ccccc4)cc3)CC2)cc1`, the “activity change, negative = inhibition” value was inactive: 2.97%. `Cc1ccc(C)c(-n2c(-c3ccc(Br)cc3)csc2=NC(=O)c2ccccc2F)c1` was tested, and the Potency was inconclusive: 31.6 µM [inhibitor, partial curve]. With `Cn1c(CNC(=O)c2ccccc2F)nnc1SCC(=O)N1CCN(c2ccccc2)CC1` the “activity change, negative = inhibition” value was inactive: 2.41%. With `COc1ccccc1CN(C(=O)CCl)C(C(=O)NC1CCCCC1)c1ccncc1` (centres undefined) the Potency was inconclusive: 39.8 µM [inhibitor, single point]. With `COc1ccc(-c2nc(C3CCCCC3)no2)cc1OC` the Potency was inconclusive: 39.8 µM [inhibitor, single point]. With `CCN(c1ccccc1)S(=O)(=O)c1ccc(Cl)c(NC(=O)COC(=O)c2ccc(Cl)c(N)c2)c1` the Potency was inconclusive: 28.2 µM [inhibitor, partial curve]. In the case of `N#Cc1c2ccc(OCC(N)=O)cc2n2ccccc12`, the Potency is reported as inconclusive: 28.2 µM [inhibitor, partial curve]. `NC(=O)c1ccc(Oc2ccc3ccc(=O)oc3c2)c([N+](=O)[O-])c1` was tested, and the Potency was inconclusive: 28.2 µM [inhibitor, partial curve]. For `COc1ccc(C(CC(=O)N2CCN(c3ccccc3)CC2)c2c(OC)cc(OC)c3c(-c4ccccc4)cc(=O)oc23)cc1` (centres undefined), the Potency was inconclusive: 7.08 µM [inhibitor, single point]. In the case of `Cc1ccc(S(=O)(=O)N(C)C)cc1NC(=O)Cn1c(CN2CCOCC2)nc2ccccc2c1=O`, the “activity change, negative = inhibition” value is reported as inactive: -13.4%. `O=C(CCN1C(=O)COc2ccccc21)N1CCN(c2ccccn2)CC1` was tested, and the Potency was inconclusive: 31.6 µM [inhibitor, single point]. For `Cc1ccc2c(c1)c1c3n2CCN(C(=O)C2CC2)C3CCC1` (centres undefined), the Potency was inconclusive: 39.8 µM [inhibitor, single point]. For `Cc1c(NC(=O)/C(C#N)=C/c2ccc(-c3ccc(Cl)c(Cl)c3)o2)c(=O)n(-c2ccccc2)n1C`, the “activity change, negative = inhibition” value was inactive: 15.5%. In the case of `O=C1CCC(=O)N1c1cccc(-c2nc3ccccc3o2)c1`, the Potency is reported as inconclusive: 1.26 µM [inhibitor, partial curve]. With `COc1ccc(Nc2nnc(SCc3cc(=O)n4ccsc4n3)s2)cc1` the Potency was inconclusive: 28.2 µM [inhibitor, single point]. In the case of `C/C(=N\NC(=O)c1ccc(Br)cc1)C1C(=O)c2ccccc2C1=O`, the Potency is reported as inconclusive: 35.5 µM [inhibitor, single point]. With `COC(=O)c1c(NC(=O)c2ccco2)sc(C)c1C` the Potency was inconclusive: 35.5 µM [inhibitor, single point]. With `O=C(CN(Cc1ccco1)C(=O)c1ccc(Cl)cc1)Nc1ccc(Cl)c(Cl)c1` the “activity change, negative = inhibition” value was inactive: 16.5%. In the case of `Nc1cc(-c2ccco2)no1`, the Potency is reported as inconclusive: 11.2 µM [inhibitor, partial curve]. For `CCN(CC)c1ccc(NS(=O)(=O)c2ccc3c(c2)oc(=O)n3C)c(C)c1`, the Potency was inconclusive: 35.5 µM [inhibitor, single point]. `N#Cc1c(N)nc(SCc2ccncc2)c(C#N)c1-c1cccs1` was tested, and the Potency was inconclusive: 39.8 µM [inhibitor, single point]. With `CCOC(=O)CN1NC2(CCC(C(C)(C)C)CC2)NC1=S` (centres undefined) the Potency was inconclusive: 39.8 µM [inhibitor, single point]. For `Cc1ccc(-n2c3c(cc(C(=O)O)c2=O)C(=O)CC(C)(C)C3)cc1`, the “activity change, negative = inhibition” value was inactive: -23.6%. With `Cc1cc(C)n2nc(CC#N)c(C#N)c2n1` the Potency was inconclusive: 31.6 µM [inhibitor, partial curve]. For `Cc1ccc2[nH]c(=O)c(-c3nc4cc(C)ccn4c3NCc3ccco3)cc2c1`, the Potency was active: 3.16 µM. `O=C(C[n+]1ccc(-c2cc(C(=O)Nc3cccc(C(F)(F)F)c3)c3ccccc3n2)cc1)c1cccc([N+](=O)[O-])c1` was tested, and the “activity change, negative = inhibition” value was inactive: -5.71%. For `O=C(O)CCc1ccc(-c2ccc(Cl)cc2)n1CCC(=O)O`, the Potency was inconclusive: 11.2 µM [inhibitor, partial curve]. `O=C(c1[nH]ncc1-c1ccccc1)C1CO1` (centres undefined) was tested, and the Potency was inconclusive: 31.6 µM [inhibitor, partial curve]. `CCCC(=O)Nc1ccc(NC(=O)c2ccco2)cn1` was tested, and the “activity change, negative = inhibition” value was inactive: 1.99%. In the case of `Clc1ccc(-c2nnc(N3CCOCC3)o2)cc1`, the Potency is reported as inconclusive: 28.2 µM [inhibitor, partial curve]. In the case of `O=C(COc1cccc2cccnc12)N1CCc2ccccc2C1`, the Potency is reported as inconclusive: 39.8 µM [inhibitor, single point].
